The whole screen tested about 52,000 compounds, of which about 1,700 (3.3%) were called active. Rule as the data show it: active = survival mostly below about 52% (no sharp cut-off); inactive = mostly above about 56%. The list shows a part of the results.
test system: Wild type; assay: growth inhibition of S. aureus wild type versus tarO mutant, primary screen, teichoic acid synthesis inhibitors, RN4220, OD600 (AID 463173); conditions: S. aureus RN4220 wild type/DeltatarO growth, OD600, 18 h, hits give low values, screened at 18.75 µg/mL (by protocol)

Structure (SMILES) | survival
COc1ccccc1S(=O)(=O)Cc1ccc(C(=O)N2CCN(c3cc(Cl)ccc3C)CC2)o1 | inactive: 63%
Cc1cc(C)c(Cn2c(=O)n(CCC(=O)NCc3ccc4c(c3)OCO4)c(=O)c3ccccc32)c(C)c1 | inactive: 92%
O=C(NCCc1ccccc1)c1ccc2nc(CCc3ccccc3)oc2c1 | active: 0%
CCOc1ccc2c(c1)c(=O)c(C(=O)c1ccc(CC)cc1)cn2CC(=O)Nc1cccc(Cl)c1 | inactive: 125%
COc1cc(C2CC(=O)Nc3ccc4ccccc4c32)ccc1OC(=O)C(C)C (stereo not given) | inactive: 64%
Cc1ccc2occ(CC(=O)N(Cc3ccc(Cl)cc3)Cc3ccco3)c2c1 | inactive: 109%
Cc1ccc(N2C(=O)[C@@H]3CSC(c4ccc(Cl)cc4)N3C2=O)cc1 (stereo not given in full) | inactive: 82%
C#CCn1c(O)c(N=NC(=O)c2ccncc2)c2cc(Br)ccc21 | inactive: 110%
CCOc1ccc(OCC)c(NC(=O)C2CCN(S(=O)(=O)c3ccc4c(c3)CC(C)N4C(C)=O)CC2)c1 (stereo not given) | inactive: 121%
O=C(c1ccco1)N(Cc1cccs1)c1ccc(F)cc1 | inactive: 107%
Cc1cc(O)c(C(c2ccccc2)N2CCN(c3ccc(F)cc3)CC2)c(=O)n1Cc1ccco1 (stereo not given) | inactive: 60%
Cc1ccc(-n2c(CCC(=O)O)ccc2-c2cccs2)cc1Cl | inactive: 107%
CCc1ccccc1NC(=O)c1cc2nc(-c3ccc(Br)cc3)cc(C(F)(F)F)n2n1 | inactive: 91%
CC(C)c1nc2ccc(C(=O)NCc3ccccc3Br)cc2o1 | inactive: 60%
Cc1cccc(OCc2cc(=O)n3c4c(sc3n2)CCCC4)c1C | inactive: 128%
CCc1ccc(C(=O)CC2(O)C(=O)N(Cc3ccc(C)cc3)c3ccccc32)cc1 (stereo not given) | inactive: 48%
O=C(NCC1CCN(Cc2cccc(Cl)c2)CC1)Nc1ccc(F)c(Cl)c1 | active: 14%
COc1cccc(CNC(=O)c2ccc(-n3c(C)cc4c3CCCC4)cc2)c1 | inactive: 68%
Cc1noc(-c2ccccc2OCC(=O)Nc2ccccc2[N+](=O)[O-])n1 | inactive: 67%
COc1ccc(CNC(=O)c2sc3nc[nH]c(=O)c3c2C)cc1 | inactive: 70%
CCOc1ccccc1N1CC(c2nc3ccccc3n2CCCOc2ccc(OC)cc2)CC1=O (stereo not given) | inactive: 89%
CC(C)OCCCN1C(=O)c2[nH]nc(-c3ccccc3O)c2C1c1ccccc1F (stereo not given) | inactive: 70%
O=C(Nc1ccc(S(=O)(=O)c2ccc(NC(=O)c3ccco3)cc2)cc1)c1ccco1 | inactive: 115%
COc1ccc2cc(CNc3ccc(C)cc3)c(=O)n(CC(=O)Nc3ccc(C)cc3Cl)c2c1 | inactive: 74%
CCN1CCSc2ccc(C(=O)NCc3cccc(Br)c3)cc21 | inactive: 86%
CCOc1ccc(NC(=O)CSc2c3c(nc4ccccc24)CCCC3)cc1 | inactive: 87%
CCCCOc1ccccc1C(=O)N(Cc1sccc1C)C1CCS(=O)(=O)C1 (stereo not given) | inactive: 85%
Cc1ccc(-c2cn3nc(N4CCCC(C(=O)NCc5ccc(F)cc5)C4)sc3n2)cc1 (stereo not given) | inactive: 88%

Structure (SMILES) | survival
CC(C)(C)c1ccc(C(=O)N2CCCC(c3nc4c(nnn4Cc4cccc(F)c4)c(=O)[nH]3)C2)cc1 (stereo not given) | inactive: 17%
CCn1c(SC)nnc1C1CCCN(CC(=O)NCc2ccc3c(c2)OCO3)C1 (stereo not given) | inactive: 116%
Cc1cc(C)cc(NC(=O)Cn2c(=O)n(-c3ccc(C)c(C)c3)c(=O)c3oc4ccccc4c32)c1 | inactive: 80%
COC(=O)c1ccc(NC(=O)CCn2cnnn2)c(C)c1 | inactive: 75%
Cc1ccc2nc(CN3CCN(S(=O)(=O)c4ccc(C(C)C)cc4)CC3)oc2c1 | inactive: 90%
CCN1C=CC2=C(C#N)C(N)C(C#N)(C#N)C(c3ccccc3C(F)(F)F)C2C1 (stereo not given) | inactive: 105%
Cc1ccc2occ(CC(=O)Nc3ccc(S(=O)(=O)N4CCCC(C)C4)cc3)c2c1 (stereo not given) | inactive: 65%
COc1ccc(NC(=O)C2CCN(C(=O)N3CCOc4ccccc43)CC2)cc1 | inactive: 84%
Cc1ccccc1Cn1nnc2c(=O)[nH]c(C3CCN(C(=O)c4ccccc4Cl)CC3)nc21 | inactive: 53%
CC(C)C(NS(=O)(=O)c1ccccc1)C(C)C | inactive: 102%
COc1ccc(NC(=O)CN2C(=O)CSc3ccc(S(=O)(=O)N(C)C)cc32)cc1Cl | inactive: 83%
O=C(Nc1ccc(Cl)c(C(F)(F)F)c1)c1ccc2c(c1)CCN2S(=O)(=O)c1ccccc1 | inactive: 78%
Cc1ccc(-n2ncc(C(=O)NCc3ccccn3)c2C2CCN(C(=O)OC(C)(C)C)CC2)c(C)c1 | inactive: 45%
COc1ccc(CNC(=O)CCCn2c(=O)c3cccn3c3ccc(F)cc32)cc1OC | inactive: 58%
O=c1c2cc3c(cc2n(Cc2ccccc2)c(=O)n1Cc1nc(-c2ccccc2)no1)OCO3 | inactive: 112%
COc1ccc(-c2noc(N3CCC(C(=O)Nc4ccc(OC)c(OC)c4)CC3)n2)cc1 | inactive: 103%
COCCCNC(=O)C(C)n1c2ccccc2c2cnn(C)c(=O)c21 (stereo not given) | inactive: 85%
COc1ccc(NC(=O)N2CCN(S(=O)(=O)c3ccc4c(ccn4C)c3)CC2)cc1OC | inactive: 129%
CCC1CN(C(=O)NCc2ccccc2)c2cc(C)ccc2O1 (stereo not given) | inactive: 85%
CCCSc1nc(-c2ccc(OC)cc2)cc(-c2ccccc2OC)c1C#N | inactive: 65%
Cc1cccc(C)c1NC(=O)CN(Cc1ccc(Br)cc1)S(=O)(=O)c1ccccc1 | inactive: 71%
COc1ccc(Br)cc1CNC(=O)c1cc(=O)[nH]c2ccc(S(=O)(=O)N3CCCCC3)cc12 | inactive: 72%
CN(C)c1ccc(C(CNC(=O)c2cccc(C(F)(F)F)c2)N2CCCC2)cc1 (stereo not given) | inactive: 99%
COc1ccc(Cl)cc1Nc1cc(C)nc2nc(-c3ccccc3C)nn12 | inactive: 97%
CCOc1ccc(NC(=O)C2CCN(S(=O)(=O)c3c(C)noc3/C=C/c3c(C)cc(C)cc3C)CC2)cc1 | inactive: 68%
CCCC(=O)Nc1cccc(-c2cn3cccnc3n2)c1 | inactive: 53%
Cc1ccc(CNc2ncnc3c2c(-c2ccccc2)cn3-c2ccccc2)cc1 | inactive: 97%
